Reference: article PMC4336329 (PLoS ONE, 2015)
Screen size: about 310,000 compounds; about 14,000 (4.5%) showed an effect of 50% or more. The effect is printed as a negative number. The list shows a part of the results.

Target: human ether-à-go-go-related gene (hERG) potassium channel (human, UniProt Q12809)
Assay: primary screen, population patch clamp on CHO cells stably expressing hERG
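Note: peak tail current of the secondary pulse compared with the same well before compound.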

Sequence of human ether-à-go-go-related gene (hERG) potassium channel (Q12809 whole entry, looked up): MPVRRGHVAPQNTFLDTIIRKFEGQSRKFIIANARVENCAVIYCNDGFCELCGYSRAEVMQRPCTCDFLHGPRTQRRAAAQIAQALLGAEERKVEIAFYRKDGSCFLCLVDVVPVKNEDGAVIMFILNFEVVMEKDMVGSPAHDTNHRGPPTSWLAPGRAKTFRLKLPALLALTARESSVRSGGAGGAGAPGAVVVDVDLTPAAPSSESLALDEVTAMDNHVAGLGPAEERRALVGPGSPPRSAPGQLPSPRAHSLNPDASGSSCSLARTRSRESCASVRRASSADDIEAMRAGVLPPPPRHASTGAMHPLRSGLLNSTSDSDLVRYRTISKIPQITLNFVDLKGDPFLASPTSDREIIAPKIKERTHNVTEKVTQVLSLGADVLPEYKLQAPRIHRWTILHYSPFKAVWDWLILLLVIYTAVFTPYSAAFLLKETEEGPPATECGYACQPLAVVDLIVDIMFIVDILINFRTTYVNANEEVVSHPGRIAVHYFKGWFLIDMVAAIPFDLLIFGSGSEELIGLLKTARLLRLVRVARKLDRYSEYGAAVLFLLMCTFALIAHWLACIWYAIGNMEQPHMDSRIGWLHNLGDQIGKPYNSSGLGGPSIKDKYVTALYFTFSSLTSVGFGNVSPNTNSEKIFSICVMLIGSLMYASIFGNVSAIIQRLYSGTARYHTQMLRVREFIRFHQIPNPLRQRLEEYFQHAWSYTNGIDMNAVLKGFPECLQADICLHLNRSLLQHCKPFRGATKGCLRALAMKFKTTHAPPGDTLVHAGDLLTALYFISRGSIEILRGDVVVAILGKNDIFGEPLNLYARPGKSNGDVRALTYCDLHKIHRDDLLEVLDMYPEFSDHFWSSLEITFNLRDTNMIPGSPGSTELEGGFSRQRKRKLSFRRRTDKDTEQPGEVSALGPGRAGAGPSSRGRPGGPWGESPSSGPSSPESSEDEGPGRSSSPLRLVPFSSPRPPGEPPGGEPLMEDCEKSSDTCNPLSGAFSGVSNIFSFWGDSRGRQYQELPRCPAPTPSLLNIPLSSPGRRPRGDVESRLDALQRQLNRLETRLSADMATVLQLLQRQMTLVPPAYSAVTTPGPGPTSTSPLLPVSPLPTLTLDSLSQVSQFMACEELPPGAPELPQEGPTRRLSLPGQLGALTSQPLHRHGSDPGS

| Structure (SMILES) | hERG current change (%, negative = inhibition) at 10uM |
| --- | --- |
| Cc1csc(NC(=O)CSC2=NS(=O)(=O)c3ccccc3N2)n1 | 9.66% |
| Cc1cc(C)c(C(=O)NC2CCCc3c2cnn3-c2ccc(C)c(C)c2)c(=O)[nH]1 (stereo not shown) | 1.56% |
| CC1=C(C(N)=O)C(c2ccc(Br)cc2)n2ncnc2N1 (stereo not shown) | 14% |
| N#Cc1ccc2nc3c(nc2c1)CCCC3 | -39.2% |
| COC(=O)C1=C(c2cccc(OCc3ccccc3)c2)C[C@@H]2CC[C@H]1N2C(=O)NCCOc1ccc(OC)cc1 | -8.15% |
| Cc1ccc(NC(=O)CN2C(=O)S/C(=C\c3ccccn3)C2=O)cc1C | 14.4% |
| Cl.O=C(C1CCC1)N1CCN(Cc2ccccc2)CC1 | 8.14% |
| COc1ccc(NC(=O)CN(C)C(=O)c2cn(-c3ccccc3)nc2-c2cccnc2)cc1 | -24.2% |
| C=CCN(C(=O)c1csnn1)C(C(=O)NCc1ccc(F)cc1)c1ccccc1F (stereo not shown) | -11.7% |
| Cc1ccc(C)c(NC(=O)C2CCCN2C(=O)NC2CCCCC2)c1 (stereo not shown) | 22.6% |
| CCOC(=O)NC(=O)C(=CNc1ccc(C)cc1)C(=O)NC(=O)OCC | 13.6% |
| CCOC(=O)c1c(C)nc(C)c2c(=O)oc3ccccc3c12 | -0.0573% |
| CCOC(=O)c1oc2ccccc2c1NC(=O)C(C)(C)C | -9.6% |
| C=CCNC(=O)/C(=C/c1cccc([N+](=O)[O-])c1)NC(=O)c1ccccc1 | -31.2% |
| COc1ccc(-n2cc(C#N)c(=O)[nH]c2=O)cc1 | 33.5% |
| COc1cc(OC)cc(-c2c(C#Cc3ccsc3)c3cc(-c4ccc(OC)nc4)ccc3n2C)c1 | 11.7% |
| COc1ccc(C2/C(=C(\O)c3ccc4c(c3)OCCO4)C(=O)C(=O)N2CCCN(C)C)c(OC)c1 (stereo not shown) | -9.82% |
| COc1cccc(NC(=O)CN(C)CC(=O)c2c(N)n(Cc3ccccc3)c(=O)n(C)c2=O)c1 | -8.12% |
| O=C(Nc1ccc(NC(=O)C2CC2)cc1)c1ccco1 | 22.1% |
| C[C@H](N)c1nnc(SCc2ccc(Cl)cc2Cl)o1.Cl | -9.18% |
| O=C1CCCCN1CCCC(=O)N1CCCC(Nc2ccccc2)C1 (stereo not shown) | 13.3% |
| COC(=O)CC(NC(=O)c1cccs1)c1ccc(OC)c(OC)c1 (stereo not shown) | 16.9% |
| C=CCn1ccc(=NC=C(C#N)C#N)c2ccccc21 | -25.2% |
| N/C(=N\OC(=O)Cc1ccc(Cl)cc1)c1cccnc1 | -13.4% |
| O/N=C/c1cc(Br)cc(Br)c1OCc1ccccc1 | 14.2% |
| Cc1ccc(NC(=O)C2CCCCC2)cc1C | -17.7% |
| COc1c(Cl)cc(-c2noc(C)c2C(=O)NCc2ccccc2)cc1Cl | 2.35% |
| COc1ccc(-c2cc(=O)c3ccccc3s2)cc1 | 12.7% |

| Structure (SMILES) | hERG current change (%, negative = inhibition) at 10uM |
| --- | --- |
| O=C(Cc1ccccc1[N+](=O)[O-])N/N=C/c1cccnc1 | 10% |
| CCCCNc1ccc(C(CC(N)=O)NC(=O)c2cc(C)cc(C)c2)cc1[N+](=O)[O-] (stereo not shown) | 15.1% |
| CCN(CC)C(=O)c1ccc2c(c1)C1C=CCC1C(C(=O)O)N2 (stereo not shown) | 11.9% |
| CC(C)Cn1nc(C(=O)NCc2ccccc2CN2CCCC2)c2ccccc2c1=O | -38.3% |
| CCc1nc(SCC(=O)N2CCCC2)c2ccccc2n1 | -12.6% |
| O=C(NN=C(Cc1ccccc1)Cc1ccccc1)C1CC1 | 10.4% |
| COc1cc(C(=O)ON=C2C3CC4CC(C3)CC2C4)cc(OC)c1OC | 11.5% |
| CN(C)S(=O)(=O)c1ccc(Nc2nc(C3CC3)nc3c2nnn3Cc2ccccc2Cl)cc1 | 18.8% |
| O=C(NC1CC2CCCC(C1)N2C(=S)Nc1ccccc1Cl)C1CC1 (stereo not shown) | -0.486% |
| Cc1ccc(-n2c(O)c(C=NCCN3CCOCC3)c(=O)[nH]c2=O)cc1 | 20.1% |
| CCOC(=O)c1cnc(-n2nc(C)cc2C)nc1Nc1ccc(N(C)C)cc1 | -0.0406% |
| COc1ccc(S(=O)(=O)N(CC(=O)N2CCOCC2)c2cc(Cl)ccc2OC)cc1OC | -16.6% |
| COCCN(C(=S)Nc1c(C)cccc1C)C(C)c1cccs1 (stereo not shown) | 0.794% |
| O=C1OCCN1C(=O)[C@H]1[C@H](c2ccc(F)cc2)C(c2ccc(F)cc2)=NN1c1ccccc1 | 5.58% |
| COc1ccc(NC(=S)NN2CCN(C)CC2)cc1 | 12.6% |
| COc1ccc(C(=O)NCC(c2ccccc2)N2CCCC2)cc1S(=O)(=O)N1CCOCC1 (stereo not shown) | -4.23% |
| Cc1ccc(-n2nnnc2-c2cccc(C)c2)cc1 | 1.24% |
| COc1ccc(C(=O)N/C(=C/c2ccccc2F)C(=O)NCCN2CCOCC2)cc1OC | 13.9% |
| CSc1ccc(/C=C/C(=O)NC(=O)c2ccccc2O)cc1 | 11.3% |
| C=CCn1c(SCC(=O)N2CCCC2)nc2cc(C(=O)NCC3CCCO3)ccc2c1=O (stereo not shown) | -31.8% |
| c1ccc(C2CC(c3ccccc3)n3ncnc3N2)cc1 (stereo not shown) | -17.3% |
| Cc1cc(NC(=O)CSc2nc(=O)n(CCCN(C)C)c3c2CCCC3)no1 | -7.06% |
| CN(/C(=N/S(=O)(=O)c1ccccc1)c1ccccc1)S(=O)(=O)c1ccccc1 | -14.5% |
| COc1ccc([N+](=O)[O-])cc1NC(=O)COC(=O)C=C(C)C | 3.39% |
| O=C(Cn1c(=O)[nH]c2ccsc2c1=O)N1CCN(c2ccc(F)cc2)CC1 | -20.1% |
| CCOc1ccc(N(CC(=O)Nc2c(C)n(C)n(-c3ccccc3)c2=O)S(=O)(=O)c2ccccc2)cc1 | -55.2% |
| C=C(C)CSc1nnc(CCCCCNC(=O)OC(C)(C)C)o1 | 3.2% |
